From PubChem BioAssay AID686979 (National Center for Advancing Translational Sciences (NCATS), 2013)
Several values for one entry are separate records, joined by “and”; a condition that tells them apart may be missing. Equal entries are not always repeated. About 50,000 (12%) of roughly 420,000 compounds were called active. The shares of active, inactive and inconclusive entries below differ from those in the screen. Calls follow the shape of the dose curve; as a rule, active = well fitted inhibition curve with a large enough effect; inconclusive = small, poorly fitted or top-dose-only effect; inactive = flat fitted curve, though single readings scatter. No potency is given beside an inconclusive call; the fits are too rough. More than one record can exist for a structure, and the calls need not agree.

Assay: qHTS for Inhibitors of human tyrosyl-DNA phosphodiesterase 1 (TDP1): qHTS in cells in presence of CPT; also: nearly all actives have a fitted effect of over 55% in size
Conditions: chicken DT40 Tdp1-/-;hTDP1 cells + 20 nM CPT, ATP luminescence, 48 h; activity change, negative = growth inhibition: at 46.2 µM (top of the series)
Summary of the method: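 Chicken DT40 Tdp1-/- cells stably complemented with human TDP1 were seeded at 400 cells/well in medium containing 20 nM camptothecin, exposed to pin-transferred compounds, and grown at 37 °C for at least 48 hr. Viability was read as ATP luminescence.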
% is scaled to controls: 0 for no effect and ±100 for the full control effect; potency is read from the fitted curve at half-maximal effect; tags tell the direction and shape of the fitted curve.

SMILES	activity change, negative = growth inhibition	Potency
Cc1nnsc1C(=O)N1CCCC1(C)C(=O)O (centres undefined)	inactive: 3.1%	
CC(=O)OCCCNc1cc(Sc2ccc(C)cc2)c2nonc2c1[N+](=O)[O-]		active: 2.91 µM
COC(=O)[C@]12CCCCC=C1N(Cc1cccc3ccccc13)C(=O)[C@H](CC(=O)N1CCN(C(=O)c3ccco3)CC1)C2		inconclusive [inhibitor, single point]
Cc1ccsc1C(=O)N1CCN(c2ncccn2)CC1	inactive: 2.96%	
CC(=O)Nc1ccc(OCCOc2ccc(NC(C)=O)cc2)cc1	inactive: 8.22%	
O=C(CSc1nnc(Cn2cnc3ccccc32)o1)c1ccccc1		active: 11.6 µM
CCOC(=O)c1cnc2cc(C(F)(F)F)ccc2c1Nc1ccc(F)cc1F		inconclusive [inhibitor, partial curve, poor fit]
CCOc1ccc(N2C(=O)CC(NC3CCN(C(=O)c4cccs4)CC3)C2=O)cc1 (centres undefined)	inactive: 6.74%	
COc1ccccc1N1CCN(CCCOc2ccc(F)cc2)CC1		inconclusive [inhibitor, single point]
COCCn1cc(C(=O)N2CCN(C)CC2)c2c3ccccc3n(C)c2c1=O	inactive: -4.38%	
CCCNC(=O)C1(C)CCN1C(=O)c1ccc(C(C)(C)C)cc1 (centres undefined)		inconclusive [inhibitor, single point]
Fc1ccccc1Cc1noc(CN2CCN(c3ccc(Cl)cn3)CC2)n1		inconclusive [inhibitor, partial curve]
COc1ncc(-c2ccc(N3C(c4ccsc4)=Cc4ccc(F)cc4C3CC(C)=O)cc2)cn1 (centres undefined)		inconclusive [inhibitor, single point]
CC1CCc2c(C(=O)Nc3ccccn3)csc2C1 (centres undefined)		inconclusive [inhibitor, single point]
COc1cc(OC)cc(C(=O)NC(=S)NNC(=O)c2cnccn2)c1		active: 5.8 µM
CCN(CC)c1ccc(NC2CC(=O)N(CCc3ccc(OC)cc3)C2=O)cc1 (centres undefined)		active: 13 µM
O=C(c1ccc(F)cc1)c1cn(Cc2ccccc2F)c2cc3c(cc2c1=O)OCCO3		inconclusive [inhibitor, single point]
CC1CCCCN1C(=O)CSc1ccc(-c2ccc(F)cc2)nn1 (centres undefined)		inconclusive [inhibitor, partial curve, poor fit]
CCN(CC)C(=O)C1=C(C)N(Cc2ccc(F)cc2)C(=O)C(CC(=O)NCCCCc2ccccc2)C1 (centres undefined)		inconclusive [inhibitor, single point]
CCOC(=O)c1sc(N)c(C(=O)Nc2ccccc2)c1C		inconclusive [inhibitor, partial curve]
Cc1ccc(CNC(=O)C23CN(Cc4ccccc4)CC2C(c2ccc([N+](=O)[O-])cc2)=NO3)o1 (centres undefined)		inconclusive [inhibitor, partial curve, poor fit]
COc1ccc(OC)c(NC(=O)c2ccc(CN3CCc4ccccc4C3)cc2)c1		inconclusive [inhibitor, single point]
CCOc1ccc(CCNC(=O)c2ccc(OCc3c(C)noc3C)cc2)cc1OCC		active: 25.9 µM

SMILES	activity change, negative = growth inhibition	Potency
COc1ccc(-c2nc3cnc(N(C)C)nc3n(CCC#N)c2=O)cc1	inactive: -17.9%	
O=c1cc(-c2ccccc2)oc2cc(O[C@@H]3O[C@H](CO)[C@@H](O)[C@H](O)[C@H]3O)c(O)c(O)c12		inconclusive [inhibitor, full curve, poor fit]
CCOC(=O)c1cnc2c(CC)cccc2c1NCCN1CCOCC1		inconclusive [inhibitor, single point]
COc1ccc(-c2nnc(N3CCOCC3)c3ccccc23)cc1	inactive: -14.7%	
Oc1ccc(Cl)cc1C1=Nc2ccccc2N=C(c2ccccc2)C1		inconclusive [inhibitor, partial curve]
CC(C)C(NC(=O)CCNC(=O)c1ccc(C(C)(C)C)cc1)c1nc2ccccc2[nH]1 (centres undefined)		inconclusive [inhibitor, single point]
Oc1ccc2cccnc2c1		inconclusive [inhibitor, single point]
CC(C)CN(C(=O)Cn1c(C(F)(F)F)nc2ccccc21)c1c(N)n(Cc2ccccc2)c(=O)[nH]c1=O	inactive: 2.25%	
Cc1cc(/C=C2\NC(=S)N(C)C2=O)ccc1N1CCCC1		inconclusive [inhibitor, single point]
O=C1[C@H]2[C@@H](c3ccc(Cl)cc3)N3C(=O)N(c4cccc(Cl)c4)C(=O)[C@@]3(Cc3ccccc3)[C@H]2C(=O)N1C1CCCCC1		active: 10.3 µM
CCCc1cc(=O)oc2cc(O[C@@H]3O[C@H](CO)[C@@H](O)[C@H](O)[C@H]3O)ccc12	inactive: -19.2%	
CCOC(=O)C1=C(C)NC2=C(C1c1ccc([N+](=O)[O-])cc1)S(=O)(=O)c1ccccc12 (centres undefined)		inconclusive [inhibitor, single point]
CN1c2ccccc2C2(C)CCCC3=Cc4cc([N+](=O)[O-])cc([N+](=O)[O-])c4OC312 (centres undefined)		active: 14.6 µM
COc1ccc(C2Nc3ccccc3C(=O)N2c2ccc(C)cc2)cc1COc1ccccn1 (centres undefined)		inconclusive [inhibitor, partial curve]
Cc1cc(N2CCN(C)CC2)nc2ccc(NC(=S)NCc3cccs3)cc12		inconclusive [inhibitor, single point]
CCC(C)Nc1nc(N)c([N+](=O)[O-])c(Nc2cc(OC)ccc2OC)n1 (centres undefined)		inconclusive [inhibitor, single point]
COc1ccc(Nc2nc(C(=O)N3CCc4ccccc4C3)cs2)cc1		inconclusive [inhibitor, single point]
COc1ccc(N2C(=O)CC(Sc3nc(C)c4c(n3)CCCC4)C2=O)cc1 (centres undefined)		active: 18.4 µM
Cc1c(OCC(=O)N2C[C@H]3C[C@@H](C2)c2cccc(=O)n2C3)ccc2c3c(c(=O)oc12)CCCC3		inconclusive [inhibitor, single point]
Cc1ccc(S(=O)(=O)N2CCN(C(=O)CCC(=O)NCc3ccc(F)cc3)CC2)cc1	inactive: -18.6%	
CCOc1cc(NS(=O)(=O)CC)c(OCC)cc1NC(=O)c1ccco1		inconclusive [inhibitor, single point]
Cc1ccc(-c2nc3c(c(SCc4ccc(Br)cc4)n2)Cc2c(CO)cnc(C)c2O3)cc1	inactive: -3.21%	
O=C(Cc1cccs1)N[C@@H]1c2ccccc2CC[C@@H]1OCc1ccccc1	inactive: -27.5%	

SMILES	activity change, negative = growth inhibition	Potency
CN(CCc1ccccn1)C(=O)c1cc(COc2ccc(F)cc2F)on1		inconclusive [inhibitor, partial curve]
CC(C)/C=C1\CCc2c([nH]c3ccccc23)C1=O	inactive: -24.8%	
COc1ccc(-c2ccccc2)cc1NC(=O)[C@@H]1O[C@H](CO)[C@@H](O)[C@H]1O	inactive: 10.4%	
CCOC(=O)Nc1cccc(OCC(=O)Nc2ccccc2OCC)c1		inconclusive [inhibitor, single point]
Cc1ccccc1N=C(N)Nc1ccccc1C		inactive and active: 26.6 µM
O=C(COc1ccc(F)cc1Br)Nc1ccccc1N1CCOCC1		inconclusive [inhibitor, single point]
CC(CCCN(C)C)C(Cc1ccccc1)c1ccccc1 (centres undefined)		inconclusive [inhibitor, single point]
O=C(CN(Cc1ccc(F)cc1)S(=O)(=O)c1ccc(S(=O)(=O)N2CCOCC2)cc1)Nc1ccccc1	inactive: -14.6%	
O=c1cc(-c2ccccc2O)oc2ccc3ccccc3c12		inconclusive [inhibitor, full curve, poor fit]
CSc1ccccc1OCc1cc(C(=O)NC(C)Cc2cccc(C)n2)no1 (centres undefined)		active: 16.4 µM
O=C(CSc1nc2c([nH]c3ccccc32)c(=O)n1-c1ccc(Cl)cc1)N1CCc2ccccc21	inactive: -3.08%	
O=C(COC(=O)c1ccccc1NCCO)Nc1ccc(S(=O)(=O)NC2=NCCCCC2)cc1		inconclusive [inhibitor, partial curve]
COc1cccc(NC(=O)CN(C)C(=O)CSc2nc3ccccc3s2)c1		inconclusive [inhibitor, single point]
O=C(CCCOc1ccccc1)N1CCN(S(=O)(=O)c2ccc(Cl)cc2)CC1		inconclusive [inhibitor, single point]
CCc1nc2ccc(C(=O)N3CCN(S(=O)(=O)CC)CC3)cn2c1N(C)C(=O)c1cccc(OC)c1	inactive: -0.639%	
Cc1nn(Cc2c(Cl)cccc2Cl)c(C)c1NC(=O)Cn1nc([N+](=O)[O-])c(Cl)c1C	inconclusive: -30.1% [inhibitor]	
CCOC(=O)c1c(C)[nH]c(C=C2C(=O)CCCC2=O)c1O		inconclusive [inhibitor, single point]
COc1ccc2oc(=O)c(C(=O)NCc3ccc(C)cc3)cc2c1	inactive: -22.7%	
O=C(c1ccccc1)c1ccc(N2CCCC2)cc1	inconclusive: -30.3% [inhibitor]	
O=C(COC(=O)/C=C/c1cccc(F)c1)NNC(=O)c1ccccc1	inactive: 5.13%	
C=CCn1c(=O)c2ccccc2n2c(SCC(=O)NCc3cccs3)nnc12		inconclusive [inhibitor, partial curve]
CCCn1c(NC(=O)c2ccccc2)nc2ccccc21		inconclusive [inhibitor, single point]
CCN(CC)S(=O)(=O)c1ccc(Cl)c(NC(=S)NC(=O)C2CCCC2)c1		active: 23.1 µM
